Experimental data taken from a collection of fitness landscapes (doi:10.1016/j.celrep.2020.107928).
The full ranking holds about 81,000 sequences; the median of “one-hybrid fitness for binding NBS DNA” is about -0.1, and the highest 2% start at about 0.36. The list shows a part of the results.

B1: Caulobacter ParB omega fusion; a variant is named by its letters at X, in order, B8GW30 (parent)
chain: MESVVVGEPGMSEGRRGLGRGLSALLGEVDAAPAQAPGEQLGGSREAPIEILQRNPDQPRRTFREEDLEDLSNSIREKGVLQPILVRPSPDTAGEYQIVAGERAWRAAQRAGLKTVPIMVRELDDLAVLEIGIIENVQRADLNVLEEALSYKVLMEKFERTQENIAQTIGKSXSHVANXMRLLXLPDEVQSYLVSGELTAXHARAIAAAADPVALAKQIIEGGLSVRETEALARKAPNLSAGKSKGGRPPRVKDTDTQALESDLSSVLGLDVSIDHRGSTGTLTITYATLEQLDDLCNRLTRGI

Variants of: B1
Assay: one-hybrid fitness for binding NBS DNA (the Noc-binding site; scaled: cognate 1, non-cognate 0); higher = stronger binding
Conditions: with NBS DNA site
In short: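 The reporter was HIS3, with the binding site 19 bp from the promoter, in E. coli USO used for bacterial one-hybrid selection of Caulobacter ParB libraries with four specificity codons randomised. Growth was on M9 lacking histidine, with 0.1 mM IPTG and 5 mM 3-AT, for 48 hours at 37°C. Illumina sequencing covered plasmids before and after selection; three replicate libraries were pooled and variants with under 10 reads dropped. A fitness score is the log change in variant-to-wild-type read ratio, rescaled to the cognate and non-cognate references.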

Variant	one-hybrid fitness for binding NBS DNA
CFST	≤ 0.2
QTER	0.458
MGGV	≤ 0.2
NWPC	≤ 0.2
STSW	≤ 0.2
PQCH	≤ 0.2
RRGR	0.744
PTPC	≤ 0.2
ANRT	≤ 0.2
AENM	≤ 0.2
RGSP	≤ 0.2
MPLN	≤ 0.2
DYIF	≤ 0.2
RQDK	≤ 0.2
IDAT	≤ 0.2
PKIY	≤ 0.2
KKKL	≤ 0.2
HRPC	≤ 0.2
KWYT	≤ 0.2
NTSC	≤ 0.2
LCRN	≤ 0.2
LLCV	≤ 0.2
NWAE	≤ 0.2
TCRV	≤ 0.2
HMTC	≤ 0.2
LANN	≤ 0.2

Variant	one-hybrid fitness for binding NBS DNA
LDNN	≤ 0.2
THEQ	≤ 0.2
FRAR	≤ 0.2
PSFR	≤ 0.2
ECRS	≤ 0.2
LIIR	≤ 0.2
TSVQ	≤ 0.2
KLRP	≤ 0.2
LAVC	≤ 0.2
PMDF	≤ 0.2
HRMS	≤ 0.2
SNHS	≤ 0.2
CHSH	≤ 0.2
KSFC	≤ 0.2
RQCT	0.382
QAKH	0.541
EQYF	≤ 0.2
KGHN	≤ 0.2
MPKL	≤ 0.2
RDRM	≤ 0.2
IHNN	≤ 0.2
QIEE	≤ 0.2
ILSS	≤ 0.2
TRHD	≤ 0.2
YILP	≤ 0.2
RSEP	≤ 0.2

Variant	one-hybrid fitness for binding NBS DNA
HPPI	≤ 0.2
KVQC	≤ 0.2
WPQV	≤ 0.2
REHG	≤ 0.2
TTLT	≤ 0.2
GSGC	≤ 0.2
PSIM	≤ 0.2
LSPV	≤ 0.2
LIAK	≤ 0.2
QIAS	0.261
TQQH	≤ 0.2
QKPQ	≤ 0.2
AYSR	≤ 0.2
WGHG	≤ 0.2
ATHS	≤ 0.2
KGFT	≤ 0.2
HSKA	≤ 0.2
TIKC	≤ 0.2
SNPQ	≤ 0.2
VWHC	≤ 0.2
RAIN	≤ 0.2
ANIE	≤ 0.2
DRCM	≤ 0.2
QDKT	≤ 0.2
LMHW	≤ 0.2
MSTI	≤ 0.2

Variant	one-hybrid fitness for binding NBS DNA
VQRN	≤ 0.2
LAAC	≤ 0.2
RTFQ	≤ 0.2
ITYR	≤ 0.2
ERRH	≤ 0.2
VSYP	≤ 0.2
LQST	≤ 0.2
PLFM	≤ 0.2
RQLN	≤ 0.2
MVFR	≤ 0.2
MYQT	≤ 0.2
VSPS	≤ 0.2
SPHL	≤ 0.2
DMAI	≤ 0.2
ASTY	≤ 0.2
YSVM	≤ 0.2
HQHL	≤ 0.2
SRQP	≤ 0.2
FASI	≤ 0.2
IEHL	≤ 0.2
KCDR	≤ 0.2
LPAP	≤ 0.2
TWLC	≤ 0.2
PLKT	≤ 0.2
REYL	≤ 0.2
TQVT	≤ 0.2

Variant	one-hybrid fitness for binding NBS DNA
HHNT	≤ 0.2
DNRN	≤ 0.2
HRVG	≤ 0.2
KGRN	≤ 0.2
RYVL	≤ 0.2
NTST	≤ 0.2
PHMR	≤ 0.2
HHPF	≤ 0.2
EGKR	≤ 0.2
RAGP	≤ 0.2
TTIS	≤ 0.2
ACHI	≤ 0.2
GPDS	≤ 0.2
DSET	≤ 0.2
EPPN	≤ 0.2
KPTD	≤ 0.2
QRTQ	0.437
KMTL	≤ 0.2
PNYR	≤ 0.2
PIEE	≤ 0.2
AMKV	≤ 0.2
PYRP	≤ 0.2
RYWD	≤ 0.2
YHQC	≤ 0.2
FCIL	≤ 0.2
LTMD	≤ 0.2

Variant	one-hybrid fitness for binding NBS DNA
RQYS	0.322
VVLG	≤ 0.2
QVPM	≤ 0.2
EPVR	≤ 0.2
QPTK	≤ 0.2
AVDR	≤ 0.2
RVMM	≤ 0.2
TAPM	≤ 0.2
DNRY	≤ 0.2
RIDQ	≤ 0.2
LREF	≤ 0.2
NRWA	≤ 0.2
WKKR	≤ 0.2
ESQE	≤ 0.2
PTIY	≤ 0.2
IFTG	≤ 0.2
ASTH	≤ 0.2
AYQY	≤ 0.2
EKEG	≤ 0.2
KRSL	≤ 0.2
SYGF	≤ 0.2
SAYT	≤ 0.2
EVSV	≤ 0.2
